Measured values published in the supplement of paper PMC10126150.
Sequences with one replicate were seen in a single cluster, so their values are uncertain.

System: ATP
Assay: switch fluorescence ratio, 500 uM ATP over buffer (Cy3 cluster intensity, sum of 5 cycles each) (fold (ratio)); higher = stronger signal-on switching upon ATP binding; sequences stand for … in TCGTCGGCAGCGTCAGATGTGTATAAGAGACAGTTTTTTTTTTTTTTTTTTTTTTTTT…TC
Conditions: aptamer strand: ATP DNA aptamer (quencher-CACCTGGGGGAGTATTGCGGAGGAAGG + anchor), 100 nM annealed; ATP concentration: 500 uM; one replicate
Method in brief: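 Five buffer/ATP imaging cycles were run on Cy3-labelled switching-strand clusters on a modified Illumina MiSeq flow-cell, with NaOH stripping and re-annealing between cycles. In each cycle, clusters annealed to 100 nM quencher-labelled ATP aptamer were imaged in selection buffer, then after 15 min with 500 uM ATP at 22 °C. Per cluster, the fluorescence ratio is summed target-cycle over summed buffer-cycle Cy3 intensity, averaged per switch-domain sequence. Only clusters within 100-1000 RFU were kept.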
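Also: ATP exposure 15 min at 22 °C before imaging.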

Row | Sequence | switch fluorescence ratio
1 | ACTAAAGTAG | 1
2 | ATGTTCCGT | 1.03
3 | GCAGGGGCCG | 0.905
4 | TACCGCATCG | 1.26
5 | CATAGGCGAT | 1.1
6 | GATGCTGGAT | 0.925
7 | AGGTTGGATG | 1
8 | TCATTCATGT | 0.995
9 | TAACGACAAA | 1.04
10 | GTCCACCC | 1.02
11 | TCTTGTAATG | 1.04
12 | AATAGTCGGT | 0.988
13 | GCCGACTCGC | 1.13
14 | AGAAGGGGCT | 1.03
15 | TGAATCGTCT | 1.11
16 | TGTAAAATTA | 1.02
17 | GTCGCCAAGC | 1.02
18 | GGCCTGGGAT | 1
19 | AATGGCTAGT | 1.04
20 | CTTGCACTTC | 1.06
21 | GGGGTGACTC | 0.973
22 | CAGAAGTTG | 1.03
23 | CCCCGGCGTG | 2.61

Row | Sequence | switch fluorescence ratio
24 | GGATGGTGTA | 1.02
25 | ATGGGTTCCT | 0.986
26 | TAGCTCGAGC | 1.01
27 | AGTATGGGG | 1.09
28 | ACATATGAGT | 1.02
29 | AATCTACGAT | 1.04
30 | TCATTAGGAC | 0.978
31 | GAGAAATCTA | 1.01
32 | CTTTTATG | 0.981
33 | CACCTGGAGT | 1.05
34 | AATGGGCCTG | 0.967
35 | TGCTAGGGT | 1.24
36 | TGTCTTTCT | 0.995
37 | GGTTCTGTTG | 0.994
38 | ATTGTAAAGT | 0.982
39 | TATCTGGTCT | 1.03
40 | CGTTTTAGGT | 1.01
41 | GTATTTTGGA | 1.02
42 | GCTATACGAG | 3.57
43 | CGAATTGATG | 0.964
44 | GGGACGGAGT | 1.14
45 | CTTGGGTTC | 1.01
46 | AAACTATGAC | 1.09

Row | Sequence | switch fluorescence ratio
47 | TTTTTTGAG | 1
48 | ACTTCTCGGC | 1.15
49 | ATTAGCAACT | 1.04
50 | CTCAGATAGC | 1.1
51 | GTCAGTCAAC | 1
52 | ATTTGAAAAA | 1.14
53 | AAGGTGCTGG | 1.01
54 | GAAACTGTCG | 1.15
55 | GAGAGTATG | 0.975
56 | TGCCTCATGT | 0.977
57 | ATAAATGAAC | 1.03
58 | GTGACGACCT | 1.09
59 | GGATGGCGTC | 0.984
60 | TATTATCGCG | 1.01
61 | TGCCGGATAG | 1.01
62 | ACAGCTAGG | 1.03
63 | CAGCTTGGTC | 1.02
64 | TTAGTAGAGG | 1.01
65 | CAGCCCTGGG | 0.998
66 | CGTTACTCAT | 1.02
67 | ACATAGTTCC | 1.1
68 | TACCTCGGAT | 1.02
69 | AATTGTGTAA | 0.979

Row | Sequence | switch fluorescence ratio
70 | CACTCCTCAC | 1.63
71 | TCGGGTCCGG | 1
72 | ACTTTGTGGG | 0.99
73 | CATTCTATT | 1.01
74 | GAATCCTGGA | 0.993
75 | GATCTAGATT | 1.01
76 | GGCGTAGCG | 1.01
77 | TTCATTAACC | 1.05
78 | GCGGCATAGT | 1.03
79 | TCCATGATGA | 1.01
80 | TTACAAGAGA | 0.982
81 | GGTACCGGTG | 1.02
82 | CTAATCTTCT | 1.02
83 | ATTACATACT | 1.41
84 | AGGCTATCAT | 0.933
85 | TAAGAAACC | 1.35
86 | ACCGGCCGCT | 1.08
87 | ACTTTTTCTG | 1.02
88 | CAAGTGATAC | 3.73
89 | AGGCTGGCT | 0.977
90 | TGACACAAAA | 1.04
91 | CGTTGGCTAT | 1.01
92 | TGAAACTCGG | 0.964

Row | Sequence | switch fluorescence ratio
93 | TTGTGAATTG | 0.966
94 | ACTTTTTGTA | 0.999
95 | GAAAGTGAGC | 0.968
96 | GCGGGACGGG | 0.976
97 | TGGCATCCAG | 0.992
98 | GGATCGAGAG | 0.986
99 | TCTTAACGTA | 1.08
100 | TGGAATCTAT | 0.93
101 | AACTTGTCCA | 0.986
102 | ATGTACCTCG | 1.05
103 | TGGAACTACT | 1
104 | TGGGCTATTG | 1.03
105 | TATCGCAGCT | 1.21
106 | GCCATCATGA | 0.997
107 | GGACAAGAGG | 0.971
108 | CGGTCATGCT | 0.997
109 | TGGCGGGTGT | 1.03
110 | TGTCCAAGGC | 1.05
111 | GAGCTAGGA | 0.985
112 | ACAGATGGCA | 1.08
113 | TCCCATTACG | 1.28
114 | CTAAATCAGG | 1.02
115 | CGAGAAAAAC | 2.34

Row | Sequence | switch fluorescence ratio
116 | CCTGGGAGCG | 1.02
117 | CGACCCGGGT | 1.08
118 | AGGCTGCAGA | 1.02
119 | GGTTCTGGCT | 0.954
120 | GCTGTGGTAA | 1
121 | ACTATATGGA | 1.07
122 | TAGCCTAATT | 1.03
123 | CTGCACGCCA | 1.48
124 | TATAAGCGGT | 0.969
125 | TTCATAGAAA | 0.977
126 | AATTTCTTTA | 1.04
127 | GAAGGTCGAG | 1.01
128 | GGGGGGTC | 1.01
129 | GCGAGGCTCC | 1.34
130 | ACACTTGACT | 1.12
131 | CTAACGTATT | 1.11
132 | TTACAAAAAT | 0.944
133 | TTGACTGGCG | 1.11
134 | AAGCTGTTGG | 0.954
135 | CTGAATAAGA | 0.993
136 | TCACGGCCCT | 1.07
137 | TCTGATTTTG | 1.04
138 | ACGAGAAACG | 0.972

Row | Sequence | switch fluorescence ratio
139 | ATACACTGTT | 1.06
140 | TTTATCCTGC | 1.04
141 | TGAATCTTGC | 1.2
142 | CGTGTGTCGG | 0.945
143 | GGCCTGGGAA | 1.04
144 | AAGCTTCAAT | 1.01
145 | CTATTGGACG | 0.896
146 | TAGATCTACG | 1.02
147 | TCTTCCATTC | 1.13
148 | ACAGTAGTA | 1.07
149 | GCCGAGTTTT | 1.06
150 | CGAAGGGCTT | 0.989
151 | ATCTATTTGG | 0.992
152 | GGGAGTACCC | 1.01
153 | ACTGTCGCGG | 1.08
154 | GCTCAATAAG | 1.03
155 | GTGATACGCA | 1.1
156 | ATTCATATTC | 1.03
157 | CTCTTCTCTC | 1.05
